# Source: article PMC5540273 (PLoS ONE, 2017)
# For some assays here: The strong results were mostly taken out for another list; the other results follow. The entries are a selection whose mix differs from that of the whole data set.
# Legend:
# Conditions in all cases: concentration: 1 μM,replicates: in singlicate; n = 1
# [1] = test system: ERBB3
# [2] = test system: ERBB4
# [3] = test system: T1, ERK1
# T1 construct: gene MAPK3
# [4] = test system: T2, ERK2
# T2 construct: gene MAPK1
# [5] = test system: T3, ERK3
# T3 construct: gene MAPK6
# [6] = test system: T4, ERK4
# T4 construct: gene MAPK4
# [7] = test system: T5, ERK5
# T5 construct: gene MAPK7
# [8] = test system: T6, ERK8
# T6 construct: gene MAPK15
# [9] = test system: ERN1
# [10] = test system: T7, FAK
# T7 construct: gene PTK2
# [11] = test system: FER
# [12] = test system: FES
# [13] = test system: FGFR1
# [14] = test system: FGFR2
# [15] = test system: FGFR3
# [16] = test system: FGFR4
# [17] = test system: FGR
# [18] = test system: FLT1
# [19] = test system: FLT3-autoinhibited
# [20] = test system: FLT3
# 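Also: KINOMEscan kinase panel screen.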
SMILES,%Inh [1],%Inh [2],%Inh [3],%Inh [4],%Inh [5],%Inh [6],%Inh [7],%Inh [8],%Inh [9],%Inh [10],%Inh [11],%Inh [12],%Inh [13],%Inh [14],%Inh [15],%Inh [16],%Inh [17],%Inh [18],%Inh [19],%Inh [20]
Cc1cc(C)cc(Oc2nccc(-c3c(-c4ccc(F)cc4)ncn3C3CCNCC3)n2)c1.O=C(O)C(F)(F)F.O=C(O)C(F)(F)F.O=C(O)C(F)(F)F [SB-284851],55%,27%,0%,0%,0%,0%,1%,13%,0%,31%,0%,5%,3%,18%,14%,9%,2%,30%,0%,0%
O=C1NC(=O)C(c2ccccc2Cl)=C1Nc1cccc(C(=O)O)c1 [SB-390526],9%,7%,2%,0%,0%,0%,5%,0%,7%,0%,0%,0%,0%,29%,22%,6%,33%,19%,4%,4%
CSc1ccc(NC2=C(c3cccc(Cl)c3)C(=O)NC2=O)cc1 [SB-341528],0%,20%,0%,0%,0%,0%,0%,0%,0%,5%,0%,0%,0%,0%,0%,10%,0%,6%,0%,0%
COc1cccc(C2=C(Nc3ccc(SC)cc3)C(=O)NC2=O)c1 [SB-331032],27%,18%,0%,11%,0%,4%,0%,10%,46%,8%,20%,8%,8%,0%,0%,0%,6%,0%,0%,16%
COc1ccc(C2=C(Nc3cccc(Cl)c3)C(=O)NC2=O)cc1 [SB-326892],34%,0%,0%,0%,0%,0%,0%,47%,16%,0%,0%,16%,29%,7%,12%,0%,37%,10%,0%,0%
O=C1NC(=O)C(c2ccc(Cl)cc2)=C1Nc1cccc(O)c1 [SB-333613],54%,13%,0%,0%,0%,3%,0%,4%,46%,14%,0%,0%,8%,17%,7%,3%,0%,0%,3%,0%
O=C1NC(=O)C(c2ccccc2)=C1Nc1ccc(Cl)c(C(=O)O)c1 [SB-390532],27%,4%,0%,0%,5%,0%,1%,0%,0%,0%,0%,0%,24%,0%,37%,23%,14%,17%,0%,0%
Cc1ccc(C)c(Oc2nccc(-c3c(-c4ccc(F)cc4)ncn3C3CCNCC3)n2)c1.O=C(O)C(F)(F)F.O=C(O)C(F)(F)F.O=C(O)C(F)(F)F [SB-284852],17%,0%,0%,19%,0%,0%,0%,7%,0%,6%,0%,12%,10%,0%,3%,3%,60%,12%,0%,6%
CS(=O)(=O)c1ccccc1-c1nc(-c2ccc(F)cc2)c(-c2ccncc2)[nH]1 [SB-213663],8%,46%,0%,0%,0%,17%,0%,0%,1%,0%,5%,0%,0%,3%,0%,0%,1%,0%,0%,27%
O=C1NC(=O)C(c2ccc(Cl)cc2)=C1Nc1ccc(O)c(Cl)c1 [SB-405367],0%,4%,0%,7%,0%,1%,0%,3%,7%,0%,0%,0%,0%,0%,0%,0%,2%,0%,6%,26%
O=C1NC(=O)c2c1c(-c1ccccc1)cc1[nH]c3ccc(O)cc3c21,5%,28%,0%,8%,0%,23%,0%,95.1%,35%,14%,0%,11%,25%,23%,15%,13%,31%,2%,44%,67%
O=C1NC(=O)C(c2ccccc2Cl)=C1Nc1ccccc1 [SB-376715],0%,37%,0%,4%,0%,9%,0%,0%,0%,0%,7%,0%,0%,0%,22%,8%,0%,10%,0%,6%
O=C1NC(=O)C(c2ccc(Cl)cc2)=C1Nc1ccccc1 [SB-317661],17%,6%,0%,0%,0%,0%,0%,0%,67%,19%,0%,0%,0%,0%,0%,0%,0%,0%,0%,5%
O=C1NC(=O)C(c2ccc(Cl)cc2)=C1Nc1cccc(C(=O)O)c1 [SB-360737],0%,0%,0%,0%,22%,18%,0%,0%,16%,0%,5%,0%,0%,0%,13%,13%,8%,22%,0%,0%
O=C(O)c1ccc(-c2nc(-c3ccc(F)cc3)c(-c3ccncc3)[nH]2)cc1 [SB-202620],0%,0%,19%,25%,0%,10%,0%,43%,0%,19%,14%,17%,24%,0%,0%,4%,22%,0%,0%,73%
O=C1NC(=O)C(c2ccccc2)=C1Nc1cc(Cl)c(O)c(Cl)c1 [SB-390530],12%,0%,0%,10%,0%,0%,0%,10%,22%,16%,0%,5%,3%,5%,8%,0%,12%,13%,33%,13%
